# Measured values as given in PMC9911399, “Two distinct binding modes provide the RNA-binding protein RbFox with extraordinary sequence specificity”.
# Numbering of substitutions follows the chain as printed; changes in the protein carry UniProt numbers. The list shows a part of the results.
# B1: AUUGUAU (DNA:RNA)
# RNA: GGGAGACCGGAAUUCAGAUUGUCCAUUGUAUUUAAAUCCCGUCGUAGCCACCA
# DNA 1: CAATCTGAATTCCGGTCTCCC
# DNA 2: TGGTGGCTACGACGGGATT
# B2: CUAUCAU (DNA:RNA)
# RNA: B1 RNA with A25C, U27A, G28U, U29C
# DNA 1: CAATCTGAATTCCGGTCTCCC
# DNA 2: TGGTGGCTACGACGGGATT
# B3: GUGUGCA (DNA:RNA)
# RNA: B1 RNA with A25G, U27G, G28U, U29G, A30C, U31A
# DNA 1: CAATCTGAATTCCGGTCTCCC
# DNA 2: TGGTGGCTACGACGGGATT
# B4: UUUGUGC (DNA:RNA)
# RNA: B1 RNA with A25U, A30G, U31C
# DNA 1: CAATCTGAATTCCGGTCTCCC
# DNA 2: TGGTGGCTACGACGGGATT
# B5: GAUGAAA (DNA:RNA)
# RNA: B1 RNA with A25G, U26A, U29A, U31A
# DNA 1: CAATCTGAATTCCGGTCTCCC
# DNA 2: TGGTGGCTACGACGGGATT
# B6: GAAUUUG (DNA:RNA)
# RNA: B1 RNA with A25G, U26A, U27A, G28U, A30U, U31G
# DNA 1: CAATCTGAATTCCGGTCTCCC
# DNA 2: TGGTGGCTACGACGGGATT
# B7: GCCGCUU (DNA:RNA)
# RNA: B1 RNA with A25G, U26C, U27C, U29C, A30U
# DNA 1: CAATCTGAATTCCGGTCTCCC
# DNA 2: TGGTGGCTACGACGGGATT
# B8: GCUUCGC (DNA:RNA)
# RNA: B1 RNA with A25G, U26C, G28U, U29C, A30G, U31C
# DNA 1: CAATCTGAATTCCGGTCTCCC
# DNA 2: TGGTGGCTACGACGGGATT
# B9: UCGCCUC (DNA:RNA)
# RNA: GGGAGACCGGAAUUCAGAUUGUCCUCGCCUCUUAAAUCCCGUCGUAGCCACCA
# DNA 1: CAATCTGAATTCCGGTCTCCC
# DNA 2: TGGTGGCTACGACGGGATT
# B10: AUACUAA (DNA:RNA)
# RNA: B1 RNA with U27A, G28C, U31A
# DNA 1: CAATCTGAATTCCGGTCTCCC
# DNA 2: TGGTGGCTACGACGGGATT
# B11: UGAUGGU (DNA:RNA)
# RNA: B1 RNA with A25U, U26G, U27A, G28U, U29G, A30G
# DNA 1: CAATCTGAATTCCGGTCTCCC
# DNA 2: TGGTGGCTACGACGGGATT
# B12: GGUUAGC (DNA:RNA)
# RNA: B1 RNA with A25G, U26G, G28U, U29A, A30G, U31C
# DNA 1: CAATCTGAATTCCGGTCTCCC
# DNA 2: TGGTGGCTACGACGGGATT
# B13: AUAGGAG (DNA:RNA)
# RNA: B1 RNA with U27A, U29G, U31G
# DNA 1: CAATCTGAATTCCGGTCTCCC
# DNA 2: TGGTGGCTACGACGGGATT
# B14: GUGAUGC (DNA:RNA)
# RNA: B1 RNA with A25G, U27G, G28A, A30G, U31C
# DNA 1: CAATCTGAATTCCGGTCTCCC
# DNA 2: TGGTGGCTACGACGGGATT
# B15: GUUUUUA (DNA:RNA)
# RNA: B1 RNA with A25G, G28U, A30U, U31A
# DNA 1: CAATCTGAATTCCGGTCTCCC
# DNA 2: TGGTGGCTACGACGGGATT
# B16: AAGGAUA (DNA:RNA)
# RNA: B1 RNA with U26A, U27G, U29A, A30U, U31A
# DNA 1: CAATCTGAATTCCGGTCTCCC
# DNA 2: TGGTGGCTACGACGGGATT
# B17: CGUGACG (DNA:RNA)
# RNA: B1 RNA with A25C, U26G, U29A, A30C, U31G
# DNA 1: CAATCTGAATTCCGGTCTCCC
# DNA 2: TGGTGGCTACGACGGGATT
# B18: GUAGUCA (DNA:RNA)
# RNA: B1 RNA with A25G, U27A, A30C, U31A
# DNA 1: CAATCTGAATTCCGGTCTCCC
# DNA 2: TGGTGGCTACGACGGGATT
# B19: UGUCCCG (DNA:RNA)
# RNA: B9 RNA with C26G, G27U, U30C, C31G
# DNA 1: CAATCTGAATTCCGGTCTCCC
# DNA 2: TGGTGGCTACGACGGGATT
# B20: UCAGAUG (DNA:RNA)
# RNA: B9 RNA with G27A, C28G, C29A, C31G
# DNA 1: CAATCTGAATTCCGGTCTCCC
# DNA 2: TGGTGGCTACGACGGGATT
# B21: UAGAUCA (DNA:RNA)
# RNA: B9 RNA with C26A, C28A, C29U, U30C, C31A
# DNA 1: CAATCTGAATTCCGGTCTCCC
# DNA 2: TGGTGGCTACGACGGGATT
# B22: UUGUACC (DNA:RNA)
# RNA: B9 RNA with C26U, C28U, C29A, U30C
# DNA 1: CAATCTGAATTCCGGTCTCCC
# DNA 2: TGGTGGCTACGACGGGATT
# B23: ACUCACA (DNA:RNA)
# RNA: B1 RNA with U26C, G28C, U29A, A30C, U31A
# DNA 1: CAATCTGAATTCCGGTCTCCC
# DNA 2: TGGTGGCTACGACGGGATT
# B24: GUGGUUA (DNA:RNA)
# RNA: B1 RNA with A25G, U27G, A30U, U31A
# DNA 1: CAATCTGAATTCCGGTCTCCC
# DNA 2: TGGTGGCTACGACGGGATT
# B25: AAUGUAU (DNA:RNA)
# RNA: B1 RNA with U26A
# DNA 1: CAATCTGAATTCCGGTCTCCC
# DNA 2: TGGTGGCTACGACGGGATT
# B26: UAUCGCU (DNA:RNA)
# RNA: B1 RNA with A25U, U26A, G28C, U29G, A30C
# DNA 1: CAATCTGAATTCCGGTCTCCC
# DNA 2: TGGTGGCTACGACGGGATT
# B27: GACCUUC (DNA:RNA)
# RNA: B9 RNA with U25G, C26A, G27C, C29U
# DNA 1: CAATCTGAATTCCGGTCTCCC
# DNA 2: TGGTGGCTACGACGGGATT
# B28: ACUAUUC (DNA:RNA)
# RNA: B1 RNA with U26C, G28A, A30U, U31C
# DNA 1: CAATCTGAATTCCGGTCTCCC
# DNA 2: TGGTGGCTACGACGGGATT
# B29: UAUGACU (DNA:RNA)
# RNA: B1 RNA with A25U, U26A, U29A, A30C
# DNA 1: CAATCTGAATTCCGGTCTCCC
# DNA 2: TGGTGGCTACGACGGGATT
# B30: CCACUAC (DNA:RNA)
# RNA: B9 RNA with U25C, G27A, C29U, U30A
# DNA 1: CAATCTGAATTCCGGTCTCCC
# DNA 2: TGGTGGCTACGACGGGATT
# B31: GUUUUCU (DNA:RNA)
# RNA: B1 RNA with A25G, G28U, A30C
# DNA 1: CAATCTGAATTCCGGTCTCCC
# DNA 2: TGGTGGCTACGACGGGATT
# Target: T1, RBFOX1 RRM (Homo sapiens, UniProt Q9NWB1 109-208)
# T1 sequence: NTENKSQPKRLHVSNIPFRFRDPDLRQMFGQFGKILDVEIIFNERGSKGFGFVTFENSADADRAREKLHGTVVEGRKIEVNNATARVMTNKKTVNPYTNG
# Test: EMSA; HiTS-Eq, 1 nM pool, 10 min; buffer printed only for the single-RNA assays: 10 mM Tris pH 7.5, 150 mM NaCl, 3.4 mM EDTA, 0.001% NP-40, 30 C
# Conditions: tags: His6 N-terminal (pET28a); label: 5' 32P
# How it was run: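 Purified wild-type or mutant RbFox RRM at increasing concentrations was equilibrated with 1 nM of 5′-radiolabelled RNA carrying 7 randomized nucleotides for 10 min in 50 µL. Unbound RNA was separated by 8% native PAGE and sequenced. Relative association constants came from read-count changes of each RNA species compared with the control reaction, normalised to the cognate motif.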
row,Binder,binding signal
1,B1,0.00559 KA relative to UGCAUGU
2,B2,0.00202 KA relative to UGCAUGU
3,B3,0.0243 KA relative to UGCAUGU
4,B4,0.0313 KA relative to UGCAUGU
5,B5,0.013 KA relative to UGCAUGU
6,B6,0.0172 KA relative to UGCAUGU
7,B7,0.0151 KA relative to UGCAUGU
8,B8,0.0214 KA relative to UGCAUGU
9,B9,0.0134 KA relative to UGCAUGU
10,B10,0.00144 KA relative to UGCAUGU
11,B11,0.0198 KA relative to UGCAUGU
12,B12,0.00911 KA relative to UGCAUGU
13,B13,0.00387 KA relative to UGCAUGU
14,B14,0.0147 KA relative to UGCAUGU
15,B15,0.011 KA relative to UGCAUGU
16,B16,0.00452 KA relative to UGCAUGU

row,Binder,binding signal
1,B17,0.00883 KA relative to UGCAUGU
2,B18,0.00813 KA relative to UGCAUGU
3,B19,0.0122 KA relative to UGCAUGU
4,B20,0.0141 KA relative to UGCAUGU
5,B21,0.0114 KA relative to UGCAUGU
6,B22,0.00863 KA relative to UGCAUGU
7,B23,0.000868 KA relative to UGCAUGU
8,B24,0.0127 KA relative to UGCAUGU
9,B25,0.00349 KA relative to UGCAUGU
10,B26,0.0147 KA relative to UGCAUGU
11,B27,0.0101 KA relative to UGCAUGU
12,B28,0.00183 KA relative to UGCAUGU
13,B29,0.00939 KA relative to UGCAUGU
14,B30,0.000125 KA relative to UGCAUGU
15,B31,0.02 KA relative to UGCAUGU
